Tests used:
[1] = test system: IL-6 trans-signaling in human umbilical vein endothelial cells (HUVECs); assay: HUVEC trans-signaling assay, MCP-1 readout; type: cell-based; settings: hIL-6 0.5 nM + soluble hIL-6Rα […], in the presence of HSA, read-out: approximate IC50, inhibition of trans-signaling (MCP-1 secretion)
Procedure: To address the trans-signaling pathway, a second assay was used. Herein, human umbilical vein endothelial cells (HUVECs) were stimulated with hIL-6 and soluble hIL-6Rα and the readout was the production of monocyte chemoattractant protein-1 (MCP-1). HUVECs (Lonza) were grown in EGM-2 bullet kit media (Lonza) and passaged in culture no more than eight times. Cells were grown until 75% confluence before use. Cells were detached using trypsin/EDTA (Lonza), resuspended and washed once in fresh medium. Next, cells were counted and dispensed into 96 well flat bottom plates at a density of 2×10^4 cells per well. Cells were cultured overnight at 37° C. in a humidified 5% CO2 atmosphere. […] The pre-mixed solutions with the test molecules and hIL-6/hIL-6Rα were then transferred to wells containing HUVECs, which were incubated for 24 h at 37° C. in a humidified 5% CO2 atmosphere. Cell free supernatant was collected after the incubation period and human MCP-1 levels were determined by sandwich ELISA using the MCP-1 Duoset ELISA development system (R&D Systems).
Half area 96-well ELISA plates were coated with anti-MCP-1 capture antibody (R&D Systems) at a concentration of 1 μg/ml. Plates were incubated overnight at 4° C., washed twice in tap water and blocked for 1 h in PBSC. […] The absorbance was measured at 450 nm using a microplate reader (Victor^3, Perkin Elmer).

[2] = test system: IL-6 dependent growth of TF-1 cells; assay: TF-1 cell neutralization assay, classical signaling (Example 2); type: cell-based, human; settings: primary Z variants; 0.099 nM rhIL-6, 72 h; read-out: IC50 (M), blocking the IL-6 dependent growth of TF-1 cells
Procedure: A first assay, evaluating the classical signaling pathway, used the TF-1 cell line that proliferates in response to human IL-6, TNF and GM-CSF. TF-1 cells were cultured in RPMI1640 with L-glut (Lonza) supplemented with 10% FCS (Gibco), Pen-Strep (Lonza) and 2 ng/ml rhGM-CSF (R&D Systems). Prior to use, cells were washed twice in RPMI1640 in the absence of rhGM-CSF. Cells were then counted and dispensed into 96 well flat bottomed plates at a density of 4×10^4 cells per well. […] In addition, the ABD-fused variants were incubated with or without 9 μM rhHSA (Novozymes). The pre-mixtures of the Z variant polypeptides and hIL-6 were then transferred to wells containing TF-1 cells which were incubated for 72 h at 37° C. in a humidified 5% CO2 atmosphere. During the last four hours of incubation 10 μl of CCK-8 (Fluke, Sigma Aldrich) was added per well to determine the number of proliferating cells. The absorbance was measured at 450 nm (Abs450) using a microplate reader (Victor^3, Perkin Elmer). The data on cell growth was assessed by non-linear regression to a four-parameter dose-response curve, and the half maximal inhibitory concentration (1050) was determined using GraphPadPrism program. The inhibition of IL-6-dependent proliferation of TF-1 cells by the inhibitory molecules was as Abs450 minus control wells that contained cells but no hIL-6.

[3] = test system: IL-6 triggered serum amyloid-A (SAA) protein release; assay: Serum Amyloid A (SAA) mouse model, hIL-6 challenge (Example 8); type: in vivo, Balb/c mice
Procedure: The IL-6 targeting Z variant Z06814 (SEQ ID NO:1512) and a control Z variant Z04726 (SEQ ID NO:1535) binding an irrelevant target, were cloned and produced in fusion with the ABD variant PP013 (SEQ ID NO:1554) as described in Example 2. Four groups of Balb/c mice (n=8) were injected subcutaneously (s.c.) with various doses (0, 0.025, 2.5 or 25 mg/kg body weight) of Z06814-ABD 9 h prior to intraperitoneal (i.p.) administration of hIL-6 at 5 μg/kg (R&D Systems). A fifth group of mice (n=8) received 25 mg/kg of Z04726-ABD. Two additional control groups of mice received PBS (n=4) and 25 mg/kg of Z06814-ABD (n=8), respectively, but no subsequent IL-6 injection. After 20 h, the blood was taken by cardiac puncture and serum was collected.
Serum was assessed for the content of murine SAA by ELISA (Tridelta) according to the manufacturer's instructions. In brief, diluted serum samples were added to SAA-precoated plates together with anti-SAA-HRP. The plates were incubated for 1 h and then washed four times. TMB substrate was added for 20 min and the reaction was stopped with stop solution. The absorbance was measured at 450 nm using a microplate reader (VICTOR^3, Perkin Elmer).

[4] = test system: IL-6/TNF-dependent proliferation of TF-1 cells; assay: TF-1 cell assay, stimulated with both IL-6 and TNF (Example 11); type: cell-based, human; settings: TF-1 cells simultaneously stimulated with IL-6 and TNF
Procedure: TF-1 cells were cultured in RPMI1640 with L-glut (Lonza) supplemented with 10% FCS (Gibco), Pen-Strep (Lonza) and 2 ng/ml rhGM-CSF (R&D Systems). Prior to use, the cells were washed twice in RPMI1640 in the absence of rhGM-CSF. Cells were then counted and dispensed into 96 well flat bottomed plates at a density of 4×10^4 cells per well. […] The samples were incubated in the presence of either 0.099 nM rhIL-6 (R&D Systems, cat. no. 206-IL/CF), 0.023 nM rhTNF (R&D Systems, cat. no. 210-TA) or a combination of both cytokines. The pre-mixtures were transferred to wells containing TF-1 cells which were incubated for 72 h at 37° C. in a humidified 5% CO2 atmosphere. During the last four hours of incubation, 10 μl of CCK-8 (Fluka, Sigma Aldrich) was added per well to determine the number of proliferating cells. The absorbance was measured at 450 nm (Abs450) using a microplate reader (VICTOR^3, Perkin Elmer). The data on cell growth was assessed by non-linear regression to a four-parameter dose-response curve, and the half maximal inhibitory concentration (IC50) was determined using GraphPad Prism program. The inhibition of IL-6/TNF-dependent proliferation of TF-1 cells by the inhibitory molecules was as Abs450 minus control wells that contained cells but no IL-6.

B1: Z06814-ABD: Z06814 (SEQ ID NO:1512) fused to ABD variant PP013 (SEQ ID NO:1554) (protein)
chain: VDAKYAKEEQRAWREIHLLPNLTIEQMAAFIWKLLDDPSQSSELLSEAKKLNDSQAPKLAEAKEAANAELDSYGVSDFYKRLIDKAKTVEGVEALKDAILAALP
modifications: Engineered IL-6 binding polypeptide; Engineered albumin binding polypeptide
[1]
  IC50: ~1 nM
[2]
  IC50: 8e-10 M
[3]; 0.025, 2.5 or 25 mg/kg s.c. 9 h before hIL-6 5 μg/kg
  SAA protein levels, dose dependence: significantly lower SAA protein levels were measured in a dose-dependent manner
[3]; 25 mg/kg body weight
  SAA protein levels at highest dose: as low as for animals given no hIL-6 injection
[4]
  viability reached at the highest concentrations: 50%

B2: Z06829-ABD: Z06829 (SEQ ID NO:1513) fused to ABD variant PP013 (SEQ ID NO:1554) (protein)
chain: VDAKYAKEEQRAWTEIHVLPNLTVSQMSAFISKLFDDPSQSSELLSEAKKLNDSQAPKLAEAKEAANAELDSYGVSDFYKRLIDKAKTVEGVEALKDAILAALP
modifications: Engineered IL-6 binding polypeptide; Engineered albumin binding polypeptide
[2]
  IC50: 1.5e-08 M

B3: Z06809-ABD: Z06809 (SEQ ID NO:1511) fused to ABD variant PP013 (SEQ ID NO:1554) (protein)
chain: VDAKYAKEERDAWREIHALPNLTVDQLVAFITKLFDDPSQSSELLSEAKKLNDSQAPKLAEAKEAANAELDSYGVSDFYKRLIDKAKTVEGVEALKDAILAALP
modifications: Engineered IL-6 binding polypeptide; Engineered albumin binding polypeptide
[2]
  IC50: 1e-08 M

B4: Z06789-ABD: Z06789 (SEQ ID NO:1505) fused to ABD variant PP013 (SEQ ID NO:1554) (protein)
chain: VDAKYAKEERQAWWEIHSLPNLTVDQMAAFIVKLMDDPSQSSELLSEAKKLNDSQAPKLAEAKEAANAELDSYGVSDFYKRLIDKAKTVEGVEALKDAILAALP
modifications: Engineered IL-6 binding polypeptide; Engineered albumin binding polypeptide
[2]
  IC50: ~1e-07 M

B5: Z06799-ABD: Z06799 (SEQ ID NO:1508) fused to ABD variant PP013 (SEQ ID NO:1554) (protein)
chain: VDAKYAKEEQRAWTEIHVLPNLTVQQMAAFITKLFDDPSQSSELLSEAKKLNDSQAPKLAEAKEAANAELDSYGVSDFYKRLIDKAKTVEGVEALKDAILAALP
modifications: Engineered IL-6 binding polypeptide; Engineered albumin binding polypeptide
[2]
  IC50: 2.4e-09 M

From US10633423B2, “IL-6-binding polypeptide complex” (AFFIBODY AB, priority 2014, dated 2020)
